# Data: the supplement of paper PMC8728848
# The list shows a part of the results.
# B1: ASAL (Allium sativum), P83886 (protein)
# chain: MGRTTSSPKAMMRIATVAAILTILASTCMARNVLTNGEGLYAGQSLDVEQYKFIMQDDCNLVLYEYSTPIWASNTGVTGKNGCRAVMQRDGNFVVYDVNGRPVWASNSVRGNGNYILVLQKDRNVVIYGSDIWSTGTYRRSVGGAVVMAMNGTVDGGSVIGPVVVNQNVTAAIRKVGTGAA
# Columns and labels:
# Test in all cases: glycan array binding signal (z-score within array); higher = stronger binding
# Conditions in all cases: glycan notation: IUPAC condensed, linker removed
# [1] = target: GlcNAc(a1-4)Gal(b1-4)GlcNAc(b1-3)Gal(b1-4)Glc
# In short: (§1)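 Glycan array data were curated from 3228 arrays in the Consortium for Functional Glycomics database and kept only where the protein sequence was available. Glycan names were converted to IUPAC-condensed notation, and columns mapping to the same glycan were averaged. The binding signal is a within-array Z-score, averaged across arrays of the same protein sequence at different concentrations or buffers and across linkers. Negative Z-scores can be read as non-binding.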
# [2] = target: GlcNAc(a1-4)Gal(b1-4)GlcNAc(b1-3)Gal(b1-4)GlcNAc
# In short: as §1
# [3] = target: GlcNAc(a1-4)Gal(b1-4)GlcNAc(b1-3)Gal(b1-4)GlcNAc(b1-3)Gal(b1-4)GlcNAc
# In short: as §1
# [4] = target: GlcNAc(a1-4)Gal(b1-4)GlcNAc(b1-3)Gal(b1-4)[Fuc(a1-3)]GlcNAc(b1-3)Gal(b1-4)[Fuc(a1-3)]GlcNAc
# In short: as §1
# [5] = target: GlcNAc(a1-6)Gal(b1-4)GlcNAc
# In short: as §1
# [6] = target: GlcNAc(b1-2)Gal(b1-3)GalNAc
# In short: as §1
# [7] = target: GlcNAc(b1-2)Man(a1-3)[GlcNAc(b1-2)Man(a1-6)]Man(b1-4)GlcNAc(b1-4)GlcNAc
# In short: as §1
# [8] = target: GlcNAc(b1-2)Man(a1-3)[GlcNAc(b1-2)Man(a1-6)]Man(b1-4)GlcNAc(b1-4)[Fuc(a1-6)]GlcNAc
# In short: as §1
# [9] = target: GlcNAc(b1-2)Man(a1-3)[GlcNAc(b1-4)][GlcNAc(b1-2)Man(a1-6)]Man(b1-4)GlcNAc(b1-4)GlcNAc
# In short: as §1
# [10] = target: GlcNAc(b1-2)[GlcNAc(b1-4)]Man(a1-3)[GlcNAc(b1-2)Man(a1-6)]Man(b1-4)GlcNAc(b1-4)GlcNAc
# In short: as §1
# [11] = target: GlcNAc(b1-2)[GlcNAc(b1-4)]Man(a1-3)[GlcNAc(b1-4)][GlcNAc(b1-2)Man(a1-6)]Man(b1-4)GlcNAc(b1-4)GlcNAc
# In short: as §1
# [12] = target: GlcNAc(b1-2)[GlcNAc(b1-4)]Man(a1-3)[GlcNAc(b1-4)][GlcNAc(b1-2)[GlcNAc(b1-6)]Man(a1-6)]Man(b1-4)GlcNAc(b1-4)GlcNAc
# In short: as §1
# [13] = target: GlcNAc(b1-2)[GlcNAc(b1-6)]Man(a1-6)[GlcNAc(b1-2)Man(a1-3)]Man(b1-4)GlcNAc(b1-4)GlcNAc
# In short: as §1
# [14] = target: GlcNAc(b1-2)[GlcNAc(b1-6)]Man(a1-6)[GlcNAc(b1-2)Man(a1-3)][GlcNAc(b1-4)]Man(b1-4)GlcNAc(b1-4)GlcNAc
# In short: as §1
# GlcNAc(b1-3)Gal = target: GlcNAc(b1-3)Gal
# In short: as §1
# [15] = target: GlcNAc(b1-3)Gal(b1-3)GalNAc
# In short: as §1
# GlcNAc(b1-3)Gal(b1-4)Glc = target: GlcNAc(b1-3)Gal(b1-4)Glc
# In short: as §1
# [16] = target: GlcNAc(b1-3)Gal(b1-4)GlcNAc
# In short: as §1
# [17] = target: GlcNAc(b1-3)Gal(b1-4)GlcNAc(b1-3)Gal(b1-4)GlcNAc
# In short: as §1
# GlcNAc(b1-3)GalNAc = target: GlcNAc(b1-3)GalNAc
# In short: as §1
# GlcNAc(b1-3)Man = target: GlcNAc(b1-3)Man
# In short: as §1
# [18] = target: GlcNAc(b1-3)[GlcNAc(b1-4)][GlcNAc(b1-6)]GlcNAc
# In short: as §1
# [19] = target: GlcNAc(b1-3)[GlcNAc(b1-6)]Gal(b1-4)GlcNAc
# In short: as §1
# [20] = target: GlcNAc(b1-3)[GlcNAc(b1-6)]GalNAc
# In short: as §1
# [21] = target: GlcNAc(b1-4)Gal(b1-4)GlcNAc
# In short: as §1
# GlcNAc(b1-4)GlcNAc = target: GlcNAc(b1-4)GlcNAc
# In short: as §1
# [22] = target: GlcNAc(b1-4)GlcNAc(b1-4)GlcNAc
# In short: as §1
# [23] = target: GlcNAc(b1-4)GlcNAc(b1-4)GlcNAc(b1-4)GlcNAc(b1-4)GlcNAc
# In short: as §1
# [24] = target: GlcNAc(b1-4)GlcNAc(b1-4)GlcNAc(b1-4)GlcNAc(b1-4)GlcNAc(b1-4)GlcNAc
# In short: as §1
# [25] = target: GlcNAc(b1-4)[GlcNAc(b1-6)]GalNAc
# In short: as §1
# [26] = target: GlcNAc(b1-6)Gal(b1-4)GlcNAc
# In short: as §1
# GlcNAc(b1-6)GalNAc = target: GlcNAc(b1-6)GalNAc
# In short: as §1
# GlcNAc3Prop(b1-4)GlcNAc = target: GlcNAc3Prop(b1-4)GlcNAc
# In short: as §1
# [27] = target: GlcNAc6S(b1-3)Gal(b1-4)GlcNAc
# In short: as §1
# Kdn(a2-3)Gal(b1-3)GalNAc = target: Kdn(a2-3)Gal(b1-3)GalNAc
# In short: as §1
# Kdn(a2-3)Gal(b1-3)GlcNAc = target: Kdn(a2-3)Gal(b1-3)GlcNAc
# In short: as §1
binder,measurement,setting,value
B1,glycan array binding signal (z-score),[1],-0.194
same,glycan array binding signal (z-score),[2],-0.177
same,glycan array binding signal (z-score),[3],-0.273
same,glycan array binding signal (z-score),[4],0.214
same,glycan array binding signal (z-score),[5],-0.156
same,glycan array binding signal (z-score),[6],-0.277
same,glycan array binding signal (z-score),[7],3.58
same,glycan array binding signal (z-score),[8],2.58
same,glycan array binding signal (z-score),[9],-0.248
same,glycan array binding signal (z-score),[10],-0.202
same,glycan array binding signal (z-score),[11],-0.289
same,glycan array binding signal (z-score),[12],-0.213
same,glycan array binding signal (z-score),[13],-0.252
same,glycan array binding signal (z-score),[14],-0.283
same,glycan array binding signal (z-score),GlcNAc(b1-3)Gal,-0.3
same,glycan array binding signal (z-score),[15],-0.049
same,glycan array binding signal (z-score),GlcNAc(b1-3)Gal(b1-4)Glc,-0.255
same,glycan array binding signal (z-score),[16],-0.285
same,glycan array binding signal (z-score),[17],-0.304
same,glycan array binding signal (z-score),GlcNAc(b1-3)GalNAc,-0.273
same,glycan array binding signal (z-score),GlcNAc(b1-3)Man,-0.3
same,glycan array binding signal (z-score),[18],-0.249
same,glycan array binding signal (z-score),[19],-0.276
same,glycan array binding signal (z-score),[20],-0.247
same,glycan array binding signal (z-score),[21],-0.233
same,glycan array binding signal (z-score),GlcNAc(b1-4)GlcNAc,-0.252
same,glycan array binding signal (z-score),[22],-0.262
same,glycan array binding signal (z-score),[23],-0.217
same,glycan array binding signal (z-score),[24],-0.219
same,glycan array binding signal (z-score),[25],-0.247
same,glycan array binding signal (z-score),[26],-0.31
same,glycan array binding signal (z-score),GlcNAc(b1-6)GalNAc,-0.283
same,glycan array binding signal (z-score),GlcNAc3Prop(b1-4)GlcNAc,-0.162
same,glycan array binding signal (z-score),[27],-0.065
same,glycan array binding signal (z-score),Kdn(a2-3)Gal(b1-3)GalNAc,-0.296
same,glycan array binding signal (z-score),Kdn(a2-3)Gal(b1-3)GlcNAc,-0.258
